# Experimental data taken from publication PMC4336329 (PLoS ONE, 2015).
# The whole screen tested about 310,000 compounds, of which about 14,000 (4.5%) showed an effect of 50% or more. The effect is printed as a negative number. The list shows a part of the results.
# Biological target: human ether-à-go-go-related gene (hERG) potassium channel (human, UniProt Q12809)
# Test: primary screen, population patch clamp on CHO cells stably expressing hERG
# 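Further: peak tail current of the secondary pulse compared with the same well before compound.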
# Sequence of human ether-à-go-go-related gene (hERG) potassium channel (Q12809 whole entry, looked up): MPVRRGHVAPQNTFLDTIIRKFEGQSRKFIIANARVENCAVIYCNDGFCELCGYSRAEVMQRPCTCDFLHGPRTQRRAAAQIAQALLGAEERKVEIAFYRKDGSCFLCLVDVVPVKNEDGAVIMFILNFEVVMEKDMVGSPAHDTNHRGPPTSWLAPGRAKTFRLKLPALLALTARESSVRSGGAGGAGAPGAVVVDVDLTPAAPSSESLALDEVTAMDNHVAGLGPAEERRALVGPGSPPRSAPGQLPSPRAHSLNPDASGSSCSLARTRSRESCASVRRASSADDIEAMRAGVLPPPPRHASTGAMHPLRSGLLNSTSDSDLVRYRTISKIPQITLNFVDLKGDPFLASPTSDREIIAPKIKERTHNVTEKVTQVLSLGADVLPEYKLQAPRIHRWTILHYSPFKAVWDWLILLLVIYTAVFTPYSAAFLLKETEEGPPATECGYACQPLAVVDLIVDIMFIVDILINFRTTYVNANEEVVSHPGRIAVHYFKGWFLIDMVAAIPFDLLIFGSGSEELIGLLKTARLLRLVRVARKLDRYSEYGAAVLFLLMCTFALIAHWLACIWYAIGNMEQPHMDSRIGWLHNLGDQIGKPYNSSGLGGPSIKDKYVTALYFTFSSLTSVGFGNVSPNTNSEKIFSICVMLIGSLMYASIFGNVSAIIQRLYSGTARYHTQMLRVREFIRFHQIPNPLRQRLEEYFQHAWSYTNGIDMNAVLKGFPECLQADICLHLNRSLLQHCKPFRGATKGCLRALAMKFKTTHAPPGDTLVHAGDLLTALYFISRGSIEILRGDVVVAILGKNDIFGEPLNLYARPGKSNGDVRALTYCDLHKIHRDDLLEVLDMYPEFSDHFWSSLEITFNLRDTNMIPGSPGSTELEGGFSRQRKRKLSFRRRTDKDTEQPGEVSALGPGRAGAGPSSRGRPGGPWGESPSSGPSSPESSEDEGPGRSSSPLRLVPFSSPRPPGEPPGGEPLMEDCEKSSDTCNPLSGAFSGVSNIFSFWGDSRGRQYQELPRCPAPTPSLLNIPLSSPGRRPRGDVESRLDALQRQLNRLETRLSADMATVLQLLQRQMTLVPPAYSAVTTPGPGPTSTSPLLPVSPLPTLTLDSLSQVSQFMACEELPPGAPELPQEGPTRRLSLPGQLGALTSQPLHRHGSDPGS
row,SMILES,"hERG current change (%, negative = inhibition) at 10uM [%]"
1,COc1ccc(-c2nc(Cn3c(SCc4ccccc4F)nc4ccncc43)c(C)o2)cc1,4.5
2,CC(C)c1ccc(NC2CCCN(C(=O)c3ccc4nccnc4c3)C2)cc1 (stereo not shown),4.68
3,CC(C)(CN1CCCC1)NS(=O)(=O)c1ccc(Cl)cc1,29.6
4,COC(=O)c1sc(S(=O)(=O)N2CCC(C(=O)O)CC2)c(C(=O)OC)c1C,3.11
5,CCOC(=O)Cc1[nH]nc2c1C(c1ccsc1)C(C#N)=C(N)O2 (stereo not shown),12.9
6,O=C(CSc1nnc(CNC(=O)c2ccccc2F)o1)NC1CCCCC1,15.8
7,Cn1c(CCC(=O)O)nc2cc(S(=O)(=O)N3CCCCC3)ccc21,4.66
8,CCn1nc(C(=O)O)c(=O)c2cc3c(cc21)OCO3,13.1
9,O=c1c2ccccc2[se]n1-c1ccccc1,27.7
10,O=C(c1c(F)cccc1F)N1CCCC(c2nc(-c3ccc(Cl)cc3)no2)C1 (stereo not shown),-15.7
11,O=C(CNC(=O)c1ccc(F)cc1)N/N=C/c1cn[nH]c1-c1ccccc1,-18.1
12,Cl.O=C(COc1ccc(Cl)cc1Cl)NCCCn1ccnc1,-38.6
13,COCCn1c(Cc2ccccc2)nnc1SCc1nc2ccccc2c(=O)[nH]1,-1.05
14,O=C(O)/C=C/C(=O)Nc1c(F)cccc1F,9
15,Cl.Cn1c(C(=O)N2CCN(Cc3ccc4c(c3)OCO4)CC2)cc2sccc21,-8.46
16,Cc1ccccc1C(=O)Nc1ccc(C(=O)NNC(=O)CCCOc2ccc(Cl)cc2Cl)cc1,15.8
17,O=C(Nc1ccccc1)c1ccc2c(c1)OCCO2,13.5
18,COc1ccc(C(C(=O)NC2CCCC2)N(C(=O)c2snc(-c3ccc(F)cc3)c2N)c2ccccc2)cc1 (stereo not shown),-7.86
19,Cc1c(NS(=O)(=O)c2cc(C(=O)NCCN(C)C)ccc2Cl)c(=O)n(-c2ccccc2)n1C.Cl,16.9
20,COc1ccc(C2C(C(=O)Nc3ccc(F)cc3)=C(C)Nc3nc(CCCO)nn32)cc1 (stereo not shown),18.3
21,COc1ccc(CCNC(=O)C2CC2)cc1,0.64
22,CC1=CC(C)[C@@H]2COC(c3ccc(O)cc3)[C@H]1C2C (stereo partly shown),4.96
23,CC(C)N1CCc2c(sc(NC(=O)CCS(=O)(=O)c3ccccc3)c2C#N)C1.Cl,-9.63
24,CCC(=O)Nc1ccc(Nc2ccccc2)cc1,1.15
25,CCOP(=O)(OCC)/C(C#N)=C/c1ccoc1,1.07
26,CCC1=C2CC[C@H]3C(=O)N(CC)C(=O)[C@H]3[C@H]2[C@@]2(Cc3ccccc3)C(=O)N(Cc3ccccc3)C(=O)N2C1=O,-4.26
27,CCC(C)(C)c1ccc(OC(=O)c2cccnc2Cl)cc1,-0.975
28,CC(=O)c1cccc(NC(=O)NC(C)c2ccc3c(c2)OCO3)c1 (stereo not shown),24

row,SMILES,"hERG current change (%, negative = inhibition) at 10uM [%]"
1,CC1(C)CC(=O)C/C(=N\NC(=S)NCc2ccccc2)C1,13.8
2,Cc1cc(NC(=O)c2ccccc2)ncc1NC(=O)c1ccco1,6.64
3,COc1cccc(NC(=O)CSc2nnc(CNC(=O)c3ccco3)n2C)c1,2.13
4,COCc1cc(Sc2cccc(Cl)c2Cl)nc(-c2ccccc2)n1,9.15
5,CC1=C(C(=O)OCc2ccccc2)C(c2ccccc2OC(F)F)NC(=O)N1 (stereo not shown),-17.2
6,O=C(O)c1ccc(NC(=O)c2cccc(N3C(=O)C4C5CCC(C5)C4C3=O)c2)cc1 (stereo not shown),23.9
7,O=C(O)C1=CC[C@@H](c2ccc(Cl)cc2)N(S(=O)(=O)c2ccc(Cl)cc2)[C@H]1c1ccccc1,-0.499
8,CCOc1ccc(NC(=S)N(CCc2c(C)[nH]c3ccc(C)cc23)Cc2ccco2)cc1,3.28
9,CCCCCC(CC(=O)NO)C(=O)NC(C(=O)N1CCCC1CO)C(C)C (stereo not shown),16.3
10,O=C(c1cc(COc2ccccc2)on1)N1CCCC(OCc2cccnc2)C1 (stereo not shown),-16.6
11,CCN(CC(=O)NCc1ccc(F)cc1)C(=O)CCNS(=O)(=O)c1cccc(C)c1,-51.9
12,CC1CN(CCOc2ccc(Cl)c(Cl)c2)CC(C)O1.O=C(O)C(=O)O (stereo not shown),-5.18
13,CCc1nc(SCC(=O)Nc2cccc(C(F)(F)F)c2)c2c(=O)n(C)c(=O)n(C)c2n1,1.82
14,COc1c(C(=O)Nc2ccccc2N2CCOCC2)cc2ccccc2c1Br,24.1
15,O=C(CCN1C(=O)COc2ccccc21)NCCC1=CCCCC1,-6.4
16,C(#CCN1CCCC1)CC(c1ccccc1)c1ccccc1.Cl,-50.5
17,CCOCCCn1c(SCC(=O)NC(C)(C)C)nc2ccccc2c1=O,-14.3
18,COc1cc2c(cc1OC)CN(C(=S)Nc1cccc(Cl)c1C)CC2,-4.6
19,CSc1nnc(Cn2c(=O)sc3ccccc32)n1CCc1ccccc1,-13
20,Cc1cccc(NC(=S)NC2CCCC2)n1,-0.725
21,O=C(COc1ccc(Cl)cc1)Nc1nc(-c2ccncc2)cs1,18.1
22,CCn1cc(C(=O)N[C@@H](CCSC)C(=O)NCCO)c(=O)c2cc3c(cc21)OCO3,20.6
23,COCCNC(=O)/C(C#N)=C/c1cc(C(C)C)c(OC)cc1C,35.5
24,O=C(Nc1c2c(nn1-c1cccc(Cl)c1)CS(=O)(=O)C2)C1CC1,-66.9
25,Cl.O=C(CN1CCCCCC1)N1c2ccccc2Sc2ccc(C(F)(F)F)cc21,-1.87
26,CCNC(=S)N(Cc1c(C)noc1C)c1ccccc1,0.796
27,CCOc1ccccc1C1C(C(N)=O)=C(C)Nc2nc(-c3ccccc3Cl)nn21 (stereo not shown),0.812
